In PubChem BioAssay AID463173 (ICCB-Longwood Screening Facility, Harvard Medical School, 2010):
The campaign covered roughly 52,000 compounds. About 4,300 (8.3%) were called active. Rule as the data show it: active = survival mostly below about 52% (no sharp cut-off); inactive = mostly above about 56%. The list shows a part of the results.

Each molecule was assayed on DeltatarO mutant (assay: growth inhibition of S. aureus wild type versus tarO mutant, primary screen, teichoic acid synthesis inhibitors, RN4220, OD600 (AID 463173)). Settings: OD600, 18 h, stronger effect = lower value, screened at 18.75 µg/mL (by protocol).

SMILES	survival
Cc1ccc(O)c(-c2n[nH]c3c2C(c2ccc(F)cc2)N(Cc2ccco2)C3=O)c1 (stereo not given)	active: 2%
O=C(COCc1cc(-c2cccs2)on1)Nc1cc(C(F)(F)F)ccc1Cl	inactive: 92%
CC(C)OCCCNC(=O)CCCN1C(=O)CCn2nc(-c3cccn3C)cc21	inactive: 119%
CC1CCN(S(=O)(=O)c2ccc3nc(N4CCN(c5ccc(F)cc5)CC4)ccc3c2)CC1	inactive: 88%
CCCC(=O)N1CCN(c2ccc(NC(=O)c3ccco3)cc2Cl)CC1	inactive: 95%
COCCCn1c(=N)c(C(=O)NC2CCCCC2)cc2c(=O)n3cc(C)ccc3nc21	inactive: 65%
Cc1ccc(S(=O)(=O)c2cc3cc(C(=O)Nc4ccc(C)cc4C)ccc3oc2=O)cc1	inactive: 89%
CC1CCCCN1CCCNC(=O)Cn1ncc2c3ccccc3n(C)c2c1=O (stereo not given)	inactive: 96%
Cc1ccc(NC(=O)c2cc(S(=O)(=O)N3CCCCC3)c[nH]2)cc1F	inactive: 81%
Cc1nn(-c2ccccc2)c2sc(C(=O)Nc3cccc(Br)c3)cc12	active: 30%
Cc1nc2ncnn2c(C)c1CCC(=O)NCc1cccc(Cl)c1	inactive: 89%
COc1ccc(C2C=C(c3ccccc3)Nc3nc(NC(=O)/C=C/c4ccc(Cl)cc4)nn32)cc1 (stereo not given)	inactive: 53%
CCOc1ccc(N2CC(c3nc4ccccc4n3CCOc3ccccc3)CC2=O)cc1 (stereo not given)	active: 33%
CC(C)(C)c1cc(CN)c(C(=O)O)o1	inactive: 88%
O=C(CN1CCN(Cc2ccccc2)CC1)N1CCOCC1	inactive: 109%
Cc1nc(-c2ccc(F)cc2)sc1CCNC(=O)c1ccc(C(C)(C)C)cc1	inactive: 77%
Cc1ccc(Cl)cc1NS(=O)(=O)c1ccc(N2CCCCS2(=O)=O)cc1	inactive: 123%
CC(=O)Nc1cccc(-c2cn3cccnc3n2)c1	inactive: 77%
CCOc1ccc(C(=O)c2c(N)c(-c3nc(-c4ccc(OCC)cc4)cs3)c3ccccn23)cc1	inactive: 102%
Cc1ccc(C(=O)NCC(c2cccnc2)N2CCc3ccccc3C2)cc1C (stereo not given)	inactive: 61%
Cc1ccc(Nc2nc(N)nc(CSc3nccn3C)n2)cc1	inactive: 93%
Cc1noc(C)c1S(=O)(=O)NCCc1csc2nc(-c3ccc(Cl)cc3)nn12	inactive: 96%
O=C(COc1ccc(F)cc1)Nc1ccc(Cl)c(-c2nc3ccccc3[nH]2)c1	active: 26%

SMILES	survival
COc1ccccc1-c1nnc(C2CCN(S(=O)(=O)c3ccc(F)c(C)c3)CC2)o1	inactive: 76%
CCOC(=O)N1CCN(C(=O)Cn2ncc3c4ccccc4n(Cc4ccc(F)cc4)c3c2=O)CC1	inactive: 60%
Cc1cccc(NC(=O)c2c(C)oc3ncnc(N4CCCCC4)c23)c1C	inactive: 122%
OCC(O)CN(c1ccccc1)c1ccccc1 (stereo not given)	inactive: 64%
CCCCc1nn2c(=O)cc(COC(=O)c3ccccc3NC(=O)c3cccc(C)c3)nc2s1	inactive: 61%
CC(CCC(=O)O)C1CCC2C3C(O)CC4CC(O)CCC4(C)C3CC(O)C12C (stereo not given)	inactive: 100%
O=C(Oc1cccc(-n2cnnn2)c1)C1CCCCC1	inactive: 94%
O=S(=O)(c1ccccc1)c1nc(-c2ccccc2F)oc1N1CCOCC1	inactive: 71%
COc1ccc(-c2cn3c(n2)sc2cc(C(=O)Nc4ccc(C)cc4C)ccc23)cc1	inactive: 59%
COc1ccc(CCNc2nc3cc(OC)c(OC)cc3c3nc(-c4cccnc4)nn23)cc1OC	inactive: 117%
COc1ccc(OC)c(NC(=O)N2CCN(Cc3nc4ccc(C)cc4o3)CC2)c1	inactive: 84%
COc1cc2ccccc2cc1C(=O)Nc1ccc2oc(-c3cccc(C)c3)nc2c1	active: 25%
CCOc1ccc(NC(=O)CCSc2nc(-c3ccc4c(c3)OCO4)cc(C(F)(F)F)n2)cc1	inactive: 63%
C=CCNC(=O)Nc1c[nH]c2ccccc2c1=O	inactive: 106%
COc1ccc(-n2c3c(cc(-c4nc(-c5ccc(Cl)cc5)cs4)c2=O)C(=O)CC(C)(C)C3)cc1Cl	inactive: 79%
CCOC(=O)CSc1nc2c(sc3ccccc32)c(=O)n1Cc1ccc(OC)cc1	inactive: 101%
Cc1cccc(NC(=O)c2sc(-n3nc(C)c(CCC(C)C)c3C)nc2C)c1	inactive: 53%
Nc1c(C(=O)c2ccccc2)sc(Nc2ccc(Cl)c(Cl)c2)c1C(=O)Nc1ccccc1	inactive: 94%
Cc1cc(=O)[nH]c(Nc2nc3ccccc3[nH]2)n1	inactive: 71%
N#Cc1ccccc1OCC(=O)N1CCN(c2ccccc2F)CC1	inactive: 117%
Cc1c(C(=O)N(C)C)sc2c1c(=O)n(-c1ccccc1C(F)(F)F)c(=O)n2Cc1cccc(F)c1	inactive: 78%
COc1ccc(C(=O)Nc2nc3c(s2)Cc2cc(OC)ccc2-3)cc1	inactive: 55%
COc1ccc(NC(=O)CSc2oc(-c3ccco3)nc2S(=O)(=O)c2ccccc2)c(OC)c1	inactive: 115%

SMILES	survival
CC(C)C(c1nnnn1C1CCCC1)N1CCOCC1 (stereo not given)	inactive: 91%
Cc1ccccc1NCc1nc2ccccc2n1CCOc1ccccc1	active: 0%
O=S(=O)(NCCN1CCOCC1)c1cccc(C(F)(F)F)c1	inactive: 104%
COC(=O)Nc1ccc2c(c1)N(C(=O)CCN1CCOCC1)c1ccccc1S2	inactive: 73%
CN(C(=O)Cn1nnc(-c2ccc(S(C)(=O)=O)cc2)n1)c1ccccc1	inactive: 73%
CCC(Sc1nnc2c3ccccc3n(C)c2n1)C(=O)Nc1nnc(C(C)C)s1 (stereo not given)	inactive: 48%
CCOc1ccc(NC(=O)CSc2nc(=O)[nH]c3c2CCC3)cc1	inactive: 71%
CN1C(=O)/C(=C2/Sc3ccccc3N2C)SC1=NC1CCCCC1	inactive: 84%
O=C(CN1CCC(n2nnc3cc(F)ccc32)CC1)NCCc1ccccc1	inactive: 95%
O=C(Oc1ccccc1-c1nc(-c2ccccc2)no1)c1ccccc1	inactive: 85%
CCOC(=O)C1=C(C)OC(N)=C(C(=O)OCC)C1c1ccncc1 (stereo not given)	inactive: 78%
CCc1ccc(NC(=O)CSc2nc3c([nH]c4ccccc43)c(=O)n2-c2cccc(OC)c2)cc1	inactive: 102%
CCCCCn1c(=O)c2c(nc3n2CCN3c2ccc(Br)cc2)n(C)c1=O	inactive: 80%
COc1cc(C)ccc1OCCSc1nc2ccc(NC(C)=O)cc2s1	inactive: 65%
COc1ccc(CNC(=O)c2cn(-c3cccc(OC)c3)c(=O)c3ccccc23)cc1	inactive: 67%
Cc1ccc(C(=O)NC2(C(F)(F)F)N=C(c3ccccc3)N(C3CCCCC3)C2=O)cc1 (stereo not given)	inactive: 62%
CCOC(=O)c1c(C)c(-c2ccccc2)n(CC(=O)Nc2cccc(C)c2C)c1C	inactive: 87%
COc1ccc(C(=O)NCC(c2ccc3c(c2)OCO3)N2CCOCC2)cc1OC (stereo not given)	inactive: 70%
CC(=O)Nc1ccc(Nc2ncnc3sc4c(c23)CCCC4)cc1	inactive: 76%
CCc1cc2c(cc3c(=O)n(CC(=O)NCCOC)nc(CC)n32)s1	inactive: 75%
Cc1ccc2nc(N(Cc3cccnc3)C(=O)CCOc3ccccc3)sc2c1	inactive: 90%
Cc1cccc(C(=O)N2CCc3cc(CNS(=O)(=O)c4cccs4)ccc32)c1	inactive: 74%
Cc1ccc(C)c(CNC(=O)c2sc3ncnc(N(C)C4CCCCC4)c3c2C)c1	inactive: 115%

SMILES	survival
CCC1CN(C(=O)N2CCC(C(=O)N3CCN(c4cc(C)ccc4C)CC3)CC2)c2ccccc2O1 (stereo not given)	active: 36%
COC(=O)COc1ccc(Oc2nc(NC(C)(C)C)nc(N(C)C)n2)nn1	inactive: 70%
NC(=O)C1CCN(C(=S)NCCc2ccccc2)CC1	inactive: 69%
CC(Sc1nc2c([nH]c3ccccc32)c(=O)n1-c1ccccc1)c1ccccc1 (stereo not given)	inactive: 77%
CCCCn1c(=O)nc2n(-c3ccc(F)cc3)c3ccccc3cc-2c1=O	active: 41%
COc1ccc(S(=O)(=O)N(C)CC(=O)NCc2ccc3c(c2)OCO3)cc1	inactive: 89%
CCOC(=O)C1CCN(C(=O)c2ccc3c(c2)N=C(CC)c2cc(C)ccc2S3)CC1	active: 36%
Cc1ccc(-c2cc(C(F)(F)F)n3ncc(-c4ccc(Cl)cc4)c3n2)cc1	inactive: 65%
O=C(O)c1ccc(C2Nc3ccccc3-c3nnc(SCc4ccc(Cl)cc4)nc3O2)cc1 (stereo not given)	inactive: 85%
O=C(c1ccco1)N1CCN(C(=O)c2cnn(-c3cccc(F)c3)c2C2CCNCC2)CC1	inactive: 89%
Cc1cccc(-c2nc(SCC(=O)N(C)c3ccccc3)c3c(=O)n(C)c(=O)n(C)c3n2)c1	inactive: 74%
COc1ccccc1OCc1nc(-c2cccc(C)c2)no1	active: -3%
COc1cccc(C(=O)Nc2ccc(C(=O)OCc3cc(=O)n4nc(C5CC5)sc4n3)cc2)c1	inactive: 79%
Cn1c(=O)cc(SCC(=O)N2CCN(c3ccccc3)CC2)c2ccccc21	inactive: 87%
O=C(c1cccc(Cl)c1)N1CCC(c2nc3ccccc3o2)CC1	inactive: 85%
O=C(Cn1c(=O)n2nc(-c3cccc(F)c3)nc2c2ccccc21)N1CCN(c2ccccc2F)CC1	inactive: 116%
CC1CCN(C(=O)C(C)Sc2nc(-c3ccccc3)cc(C(F)(F)F)n2)CC1 (stereo not given)	active: -1%
COc1ccccc1NC(=O)C1=C(C)Nc2nc(SCc3cccc(F)c3)nn2C1c1ccc(C(=O)O)cc1 (stereo not given)	inactive: 170%
COc1cccc(CNC(=O)c2cc3ccc4cccnc4c3[nH]2)c1	inactive: 83%
Cc1occc1-c1nnc(SCC(=O)Nc2ccc3c(c2)OCO3)n1CC(C)C	inactive: 63%
O=C(c1ccco1)N1CCCC(c2nc(-c3ccc(S(=O)(=O)NCc4ccccc4)cc3)no2)C1 (stereo not given)	inactive: 74%
